For 13 molecules, Kd, koff and kon results are on record in US20250223340A1 (BIOTHEUS, published 2025).

First the molecules themselves.
B1: HSA-M-16 (Fc fusion)
chain: QVQLQESGGGLVQPGGSLRLSCAASGFTLDYYAIGWFRQAPGKEREGVSCIASSGGSTNYADYVKGRFTISRDNAKNTVYLLMNKLKPEDTAVYYCAAAVLECRTVVREYDYWGQGTQVTVSS[sequence of human IgG1 Fc with changes omitted]
B2: HSA-PH-11 (Fc fusion)
chain: QVQLQESGGGLVQPGGSLRLSCTASGAQLEYYAIGWFRQAPGKEREGVSCISSSGGSTNNADSVKGRFTISRDNAKNTVYLQMNSLKPEDTAVYYCAAATLECRTVLTGYDYWGQGTQVTVSS[sequence of human IgG1 Fc with changes omitted]
B3: HSA-M-27 (Fc fusion)
chain: QVQLQESGGGLVQPGGSLRLSCAASGFTLDYYAIGWFRQAPGKEREGVSCIASSGGSTNYADSVKGRFTISRDNAKNTVYLQMNKLKPEDTAVYYCAAAVLECRTVVRGYDYWGQGTQVTVSS[sequence of human IgG1 Fc with changes omitted]
B4: HSA-M-29 (Fc fusion)
chain: QVQLQESGGGLVQPGGSLRLSCVASRFTLDYYAIGWFRQAPGKEREGVSCIASSGGSTNYADSVKGRFTISRDNAKNTVYLQMNKLKPEDTAVYYCAAAVLECRTVVRGYDYWGQGTQVTVSS[sequence of human IgG1 Fc with changes omitted]
B5: HSA-30 (Fc fusion)
chain: QVQLQESGGGLVQPGGSLRLSCKASGFTFSIYSMGWYRQVPGKEREAVATISSGGSPFYANSASGRFTISRDNAKSTVYLQMNNLKPEDTGVYSCSPITSIFKAQGQGTQVTVSS[sequence of human IgG1 Fc with changes omitted]
B6: Hu-HSA-PH-8-1 (Fc fusion)
chain: QVQLVESGGGLVQPGGSLRLSCSASGSIWGIYHMGWYRQAPGKQRELVASITVDGSTHYADTVKGRFTISRDNSKNMVYLQMNSLEPEDTAVYYCDIRNVGGDYWGQGTQVTVSS[sequence of human IgG1 Fc with changes omitted]
notes: Humanized from HSA-PH-8
B7: Hu-HSA-PH-8-3 (Fc fusion)
chain: QVQLVESGGGLVQPGGSLRLSCSASGSIWGIYHMGWYRQAPGKQRELVASITVDGSTHYADTVKGRFTISRDNSKNMVYLQMNSLRAEDTAVYYCDIRNVGGDYWGQGTQVTVSS[sequence of human IgG1 Fc with changes omitted]
notes: Humanized from HSA-PH-8
B8: Hu-HSA-PH-8-2 (Fc fusion)
chain: QVQLVESGGGLVQPGGSLRLSCSASGSIWGIYHMGWYRQAPGKGLELVASITVDGSTHYADTVKGRFTISRDNSKNMVYLQMNSLEPEDTAVYYCDIRNVGGDYWGQGTQVTVSS[sequence of human IgG1 Fc with changes omitted]
notes: Humanized from HSA-PH-8
B9: Hu-HSA-59-3 (Fc fusion)
chain: EVQLLESGGGLVQPGGSLRLSCAASGFTLDYYAIGWFRQAPGKEREEVSCISSSGGSTNYADSVKGRFTISRDNSKNTVYLQMNSLRAEDTAVYYCAAALLECRVRSWPSDNWGQGTQVTVSS[sequence of human IgG1 Fc with changes omitted]
notes: Humanized from HSA-59
B10: Hu-HSA-M-27-2 (Fc fusion)
chain: EVQLLESGGGLVQPGGSLRLSCAASGFTLDYYAIGWFRQAPGKGLEGVSCIASSGGSTNYADSVKGRFTISRDNSKNTVYLQMNSLKPEDTAVYYCAAAVLECRTVVRGYDYWGQGTQVTVSS[sequence of human IgG1 Fc with changes omitted]
notes: Humanized from HSA-M-27
B11: Hu-HSA-M-27-1-2 (Fc fusion)
chain: EVQLLESGGGLVQPGGSLRLSCAASGETLDYYAIGWFRQAPGKEREGVSCIASSGGSTNYADSVKGRFTISRDNSKNTVYLQMNSLKPEDTAVYYCAAAVLECRTVVRGYDYWGQGTQVTVSS[sequence of human IgG1 Fc with changes omitted]
B12: Hu-HSA-M-27-3 (Fc fusion)
chain: EVQLLESGGGLVQPGGSLRLSCAASGFTLDYYAIGWFRQAPGKEREGVSCIASSGGSTNYADSVKGRFTISRDNSKNTVYLQMNSLRAEDTAVYYCAAAVLECRTVVRGYDYWGQGTQVTVSS[sequence of human IgG1 Fc with changes omitted]
notes: Humanized from HSA-M-27
B13: Hu-HSA-59-2 (Fc fusion)
chain: EVQLLESGGGLVQPGGSLRLSCAASGFTLDYYAIGWFRQAPGKGLEEVSCISSSGGSTNYADSVKGRFTISRDNSKNTVYLQMNSLKPEDTAVYYCAAALLECRVRSWPSDNWGQGTQVTVSS[sequence of human IgG1 Fc with changes omitted]
notes: Humanized from HSA-59

One assay addresses T1, cynomolgus serum albumin (cynomolgus).
T1 construct: Bought reagent; also called CSA
Briefly: BLI (ForteBio), VHH-Fc on AHQ sensor, 1:1 model.
Molecule B1 returned a Kd of 70.7 nM, a koff of 0.0201 s⁻¹ and a kon of 284000 M⁻¹ s⁻¹.

In turn, B2 came in with a Kd of 9.07 nM, a koff of 0.00537 s⁻¹ and a kon of 591000 M⁻¹ s⁻¹.

B3 had a Kd of 71.6 nM, a koff of 0.0201 s⁻¹ and a kon of 280000 M⁻¹ s⁻¹.

B4 registered a Kd of 74.3 nM, a koff of 0.0204 s⁻¹ and an association rate constant (kon) of 274000 M⁻¹ s⁻¹.

In turn, B5 had a Kd of 1.2 nM, a koff of 0.00039 s⁻¹ and a kon of 325000 M⁻¹ s⁻¹.

The target of the next assay is T2, mouse serum albumin (mouse, UniProt P07724 25-608).
T2 construct: Bought reagent; also called MSA
As to the kind of experiment: BLI (ForteBio), VHH-Fc on AHQ sensor, 1:1 model.
Take B1: the Kd was 12.2 nM, the koff turned out to be 0.00546 s⁻¹ and the kon was found to be 447000 M⁻¹ s⁻¹.

The molecule B2 registered a Kd of 6.32 nM, a koff of 0.00296 s⁻¹ and an association rate constant (kon) of 468000 M⁻¹ s⁻¹.

Consider B3, for which binding was put at a Kd of 17.4 nM, the koff turned out to be 0.00752 s⁻¹ and the kon came to 433000 M⁻¹ s⁻¹.

Take B4: the affinity, expressed as Kd, was 17.7 nM; the koff was 0.00722 s⁻¹; the association rate constant (kon) amounted to 408000 M⁻¹ s⁻¹.

The molecule B5 came in with a Kd of 25.8 nM, a koff of 0.00354 s⁻¹ and a kon of 137000 M⁻¹ s⁻¹.

For the next assay, the target named is T1, cynomolgus serum albumin. As to the kind of experiment: BLI (ForteBio), VHH-Fc on AHQ sensor, 1:1 model. This is another data set of the same source.
B6 yielded an equilibrium dissociation constant (Kd) of 16.2 nM, a koff of 0.00446 s⁻¹ and a kon of 276000 M⁻¹ s⁻¹.

B7 yielded a Kd of 17.8 nM, a koff of 0.00464 s⁻¹ and a kon of 261000 M⁻¹ s⁻¹.

For B8, binding was characterised by a dissociation constant (Kd) of 32.8 nM, the koff came out at 0.00554 s⁻¹ and the kon amounted to 169000 M⁻¹ s⁻¹.

As for B9, binding was characterised by a dissociation constant (Kd) of 71.4 nM, the koff turned out to be 0.0195 s⁻¹ and the kon is 273000 M⁻¹ s⁻¹.

Turning to B10, binding was put at a Kd of 43.6 nM, the koff came out at 0.013 s⁻¹ and the kon stood at 299000 M⁻¹ s⁻¹.

For the molecule B11, the affinity, expressed as Kd, was 47.8 nM; the koff was 0.015 s⁻¹; the association rate constant (kon) was determined as 314000 M⁻¹ s⁻¹.

Molecule B12 yielded a Kd of 37.7 nM, a koff of 0.0153 s⁻¹ and an on-rate constant (kon) of 407000 M⁻¹ s⁻¹.

On to B13, for which the Kd is 80.4 nM, the koff was determined as 0.0233 s⁻¹ and the on-rate constant (kon) was 289000 M⁻¹ s⁻¹.

Another assay has as its target T2, mouse serum albumin. Briefly: BLI (ForteBio), VHH-Fc on AHQ sensor, 1:1 model. The source holds these as a separate data set.
B6 yielded a Kd of 25.5 nM, a koff of 0.00685 s⁻¹ and a kon of 268000 M⁻¹ s⁻¹.

B7 returned a Kd of 25.6 nM, an off-rate constant (koff) of 0.00653 s⁻¹ and a kon of 256000 M⁻¹ s⁻¹.

In the case of B8, the affinity, expressed as Kd, was 42 nM; the koff was determined as 0.00835 s⁻¹; the on-rate constant (kon) came to 199000 M⁻¹ s⁻¹.

The molecule B9 returned a dissociation constant (Kd) of 11.7 nM, a koff of 0.00419 s⁻¹ and an on-rate constant (kon) of 357000 M⁻¹ s⁻¹.

Molecule B10 came in with a Kd of 8.21 nM, a koff of 0.00358 s⁻¹ and an on-rate (kon) of 436000 M⁻¹ s⁻¹.

The molecule B11 displayed a dissociation constant (Kd) of 6.22 nM, a koff of 0.00381 s⁻¹ and an on-rate (kon) of 612000 M⁻¹ s⁻¹.

In turn, B12 yielded a Kd of 7.62 nM, a dissociation rate constant (koff) of 0.00394 s⁻¹ and an on-rate constant (kon) of 517000 M⁻¹ s⁻¹.

As for B13, binding was put at a Kd of 13 nM, the koff is 0.00459 s⁻¹ and the kon turned out to be 354000 M⁻¹ s⁻¹.

The target in another assay is T3, human serum albumin (human, UniProt P02768).
T3 construct: Bought reagent; also called HSA; HSA antigen
As to the kind of experiment: BLI (ForteBio), VHH-Fc on AHQ sensor, 100 nM antigen, 1:1 model.
In turn, B1 displayed a Kd of 38.1 nM, a koff of 0.00628 s⁻¹ and a kon of 165000 M⁻¹ s⁻¹.

Consider B2, for which the affinity, expressed as Kd, was 44.3 nM; the koff was 0.00979 s⁻¹; the kon was 221000 M⁻¹ s⁻¹.

The molecule B3 came in with a Kd of 16.1 nM, a koff of 0.00393 s⁻¹ and an on-rate (kon) of 244000 M⁻¹ s⁻¹.

Turning to B4, the Kd amounted to 23.3 nM, the koff turned out to be 0.00585 s⁻¹ and the kon is 251000 M⁻¹ s⁻¹.

Regarding B5, the Kd was determined as 1.54 nM, the koff turned out to be 0.000215 s⁻¹ and the kon was found to be 140000 M⁻¹ s⁻¹.

The target in another assay is T3, human serum albumin. Described as above. The source holds these as a separate data set.
With B6, binding was put at a Kd of 72.8 nM, the koff is 0.00744 s⁻¹ and the on-rate (kon) came out at 102000 M⁻¹ s⁻¹.

For the molecule B7, the Kd is 60.6 nM, the off-rate (koff) is 0.00764 s⁻¹ and the kon came to 126000 M⁻¹ s⁻¹.

The molecule B8 displayed a Kd of 213 nM, a koff of 0.0113 s⁻¹ and a kon of 53200 M⁻¹ s⁻¹.

For the molecule B9, binding was put at a Kd of 454 nM, the koff is 0.0149 s⁻¹ and the on-rate constant (kon) is 32900 M⁻¹ s⁻¹.

In turn, B10 registered a Kd of 42.3 nM, a dissociation rate constant (koff) of 0.00566 s⁻¹ and a kon of 134000 M⁻¹ s⁻¹.

In the case of B11, the Kd came to 34.8 nM, the koff was found to be 0.00666 s⁻¹ and the kon was 192000 M⁻¹ s⁻¹.

Molecule B12 returned a Kd of 40.9 nM, a koff of 0.00692 s⁻¹ and a kon of 169000 M⁻¹ s⁻¹.

The molecule B13 registered a Kd of 1740 nM, a dissociation rate constant (koff) of 0.0215 s⁻¹ and a kon of 12400 M⁻¹ s⁻¹.
